The list shows a part of the results. The full chains were built here from the parent and the listed change. Values near 0.05 are background.
B1: TEV protease; numbered along this chain (parent)
chain: MGESLFKGPRDYNPISSSICHLTNESDGHTTSLYGIGFGPFIITNKHLFRRNNGTLVVQSLHGVFKVKDTTTLQQHLVDGRDMIIIRMPKDFPPFPQKLKFREPQREERICLVTTNFQTKSMSSMVSDTSCTFPSGDGIFWKHWIQTKDGQCGSPLVSTRDGFIVGIHSASNFTNTNNYFTSVPKNFMELLTNQEAQQWVSGWRLNADSVLWGGHKVFMVKPEEPFQPVKEATQL

Variants of: B1
Assay: raw area under fraction-flipped curve 0-4 h after induction (AUC4h, not background-subtracted), DNA-recorder readout of cleavage of the substrate (dimensionless); higher = more cleavage of the substrate by the protease variant
Conditions: temperature: 34 °C; time window: 0-4 h after rhamnose induction
Experimental: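 In vivo DNA recorder in E. coli TOP10(DE3) ΔrhaA at 34 °C. Each TEVp single-site mutant (parent TEVp 0) is paired with a single-site variant of the 7-mer TEVs (canonical ENLYFQ|S). The substrate sits between flexible linkers in a Bxb1-sfGFP-TEVs-SsrA fusion, so cleavage stabilises Bxb1 and speeds flipping of a recombination array, read by NGS. The value is the raw area under the fraction-flipped curve over 0-4 h after rhamnose induction (AUC4h), with ≥20 reads per time point. It is not background-subtracted; inactive controls average about 0.047.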
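Note: Bxb1 expression induced with 0.2% (w/v) L-rhamnose at OD600 near 0.5, cultures sampled hourly, flipped fraction per protease–substrate barcode pair counted by paired-end Illumina sequencing.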

| Variant | area with substrate ENLYFAS | area with substrate ENLYFCS | area with substrate ENLYFDS | area with substrate ENLYFES | area with substrate ENLYFHS | area with substrate ENLYFIS | area with substrate ENLYFKS | area with substrate ENLYFLS | area with substrate ENLYFPS | area with substrate ENLYFRS | area with substrate ENLYFTS | area with substrate ENLYFYS | area with substrate ENLYFFS | area with substrate ENLYFMS | area with substrate ENLYFNS | area with substrate ENLYFVS | area with substrate ENLYFGS | area with substrate ENLYFSS | area with substrate ENLYFWS |
| --- | --- | --- | --- | --- | --- | --- | --- | --- | --- | --- | --- | --- | --- | --- | --- | --- | --- | --- | --- |
| Q151S | 0.0409 | 0.0587 | 0.0607 | 0.0567 | 0.085 | 0.0469 | 0.0847 | 0.0369 | 0.0698 | 0.0553 | 0.0629 | 0.0624 | – | – | – | – | – | – | – |
| E189V | 0.0481 | 0.059 | – | 0.0663 | 0.0663 | 0.0614 | 0.0677 | 0.0606 | 0.0542 | 0.0622 | 0.0507 | – | 0.0589 | 0.0709 | 0.083 | 0.0545 | – | – | – |
| R51C | 0.0609 | 0.0609 | – | 0.0605 | – | 0.0582 | 0.0544 | 0.0506 | 0.0704 | – | 0.0515 | 0.0491 | 0.0706 | 0.0712 | 0.068 | – | 0.0675 | 0.0619 | 0.06 |
| I36N | 0.0451 | 0.0471 | – | 0.0562 | 0.0424 | 0.0468 | 0.0491 | – | 0.0439 | 0.052 | 0.0439 | 0.07 | 0.0505 | 0.0538 | 0.0555 | – | 0.046 | 0.0449 | – |
| N53G | 0.0563 | 0.0666 | 0.056 | 0.0668 | 0.0652 | 0.0586 | 0.045 | 0.0582 | 0.0617 | 0.0488 | 0.0608 | – | 0.0535 | 0.0577 | 0.0664 | 0.0627 | – | – | 0.0601 |
| I85K | 0.0525 | 0.0665 | – | 0.0727 | – | 0.0392 | 0.0728 | – | 0.0558 | – | 0.0279 | – | – | 0.0653 | 0.0556 | 0.0514 | – | – | 0.0512 |
| V200E | 0.066 | 0.0447 | – | – | 0.0377 | 0.0758 | – | 0.0512 | – | – | – | – | 0.0677 | 0.0679 | 0.0556 | 0.0642 | – | 0.0447 | 0.0466 |
| F218G | 0.0739 | – | – | 0.0523 | – | 0.0694 | – | 0.0592 | 0.0606 | – | – | 0.0471 | 0.0823 | – | 0.0495 | – | – | 0.0495 | 0.0605 |
| R50L | 0.043 | – | – | 0.0758 | 0.0476 | 0.0569 | 0.056 | 0.0665 | 0.0468 | – | 0.0576 | – | 0.0545 | 0.0656 | – | 0.0624 | – | 0.0672 | 0.0505 |
| I36C | 0.0615 | – | 0.0448 | 0.0603 | – | 0.0566 | 0.0806 | 0.059 | 0.0416 | 0.0319 | 0.0587 | 0.0709 | 0.0592 | 0.0601 | 0.0924 | 0.0516 | – | 0.046 | 0.0515 |
| F218H | 0.0564 | – | 0.0751 | 0.0593 | – | 0.0629 | 0.0969 | – | 0.0588 | 0.0604 | – | – | 0.0604 | 0.0838 | – | 0.053 | 0.0579 | – | – |
| G138Q | 0.0216 | 0.0619 | 0.0372 | – | – | 0.0496 | – | – | – | 0.0444 | – | – | 0.0396 | 0.0525 | 0.0749 | 0.0537 | – | – | – |
| I110H | 0.059 | 0.0492 | – | 0.0414 | – | 0.0481 | 0.0465 | – | 0.0479 | 0.0602 | 0.0547 | 0.0389 | 0.0648 | 0.0528 | 0.0486 | – | 0.0777 | 0.0571 | 0.0466 |
| S60F | 0.0664 | – | – | 0.0704 | 0.058 | 0.0477 | 0.057 | 0.065 | 0.061 | – | 0.063 | – | 0.0522 | 0.061 | 0.0756 | 0.0711 | 0.068 | – | 0.0552 |
| V210G | 0.0793 | – | – | 0.095 | 0.0156 | 0.0519 | – | 0.0675 | 0.0629 | 0.0592 | – | – | – | 0.0541 | 0.0487 | – | – | 0.0704 | – |
| Q118A | 0.0499 | 0.0601 | 0.0505 | 0.0631 | 0.0627 | 0.0607 | 0.0864 | 0.0655 | 0.0609 | 0.0608 | – | – | 0.0573 | 0.0396 | 0.0738 | 0.0942 | 0.0669 | 0.0707 | 0.0477 |
| N45D | 0.0504 | 0.0577 | 0.0612 | 0.0548 | 0.0569 | 0.0473 | 0.0522 | 0.0667 | 0.0596 | 0.0642 | 0.0618 | 0.0602 | 0.0654 | 0.0557 | 0.0883 | 0.067 | 0.0383 | 0.0574 | – |
| K221Y | 0.0522 | 0.0508 | 0.0716 | 0.0719 | 0.0622 | 0.05 | – | 0.0671 | 0.0636 | 0.0563 | – | 0.0579 | 0.0685 | 0.062 | 0.0605 | – | – | 0.0591 | 0.0449 |
| G39V | 0.033 | 0.0284 | 0.0506 | 0.0411 | 0.0474 | 0.0387 | 0.0409 | 0.0416 | 0.0451 | 0.0474 | 0.0465 | – | 0.0534 | 0.0416 | 0.0382 | 0.033 | 0.0406 | 0.0436 | 0.0449 |
| Q105N | 0.0948 | 0.0562 | 0.0658 | 0.0617 | 0.068 | 0.0575 | 0.0623 | – | 0.0675 | 0.0538 | 0.0559 | 0.0551 | 0.0673 | 0.0633 | 0.0604 | 0.0594 | 0.0462 | 0.0685 | 0.0655 |
| H21K | 0.0576 | 0.0636 | 0.0653 | 0.065 | 0.0491 | 0.0518 | 0.0588 | 0.0642 | 0.0522 | 0.0556 | 0.0672 | – | 0.0678 | 0.0566 | 0.0865 | – | 0.0713 | – | 0.0573 |
| Q74D | 0.0747 | 0.0532 | 0.0474 | 0.0709 | 0.0686 | 0.0635 | 0.0673 | 0.0536 | 0.0644 | 0.0572 | 0.0658 | 0.0563 | 0.0577 | 0.0565 | 0.064 | – | – | – | – |
| Q227E | 0.0566 | 0.0823 | 0.0622 | 0.0977 | – | 0.0554 | – | 0.0577 | 0.0531 | 0.0541 | 0.0547 | 0.0754 | – | 0.066 | 0.0667 | 0.101 | – | 0.0773 | 0.0503 |
| Q151H | 0.0682 | 0.05 | 0.0741 | 0.0716 | – | – | 0.0669 | – | 0.0537 | 0.0495 | – | 0.0532 | 0.0803 | 0.0582 | – | – | 0.0579 | 0.0626 | 0.0429 |
| F218S | 0.0751 | 0.0608 | 0.059 | – | 0.0564 | 0.0482 | – | – | 0.0561 | – | 0.0489 | – | 0.0546 | 0.0833 | 0.0784 | 0.0134 | 0.059 | – | 0.0574 |

— the supplement of paper PMC12217912
